Experimental data taken from publication PMC7613676.
No constants are given. Whether binding was seen depends on the method and setting. In cells and extracts the contact can be indirect. Some entries that bind do so weakly or less than the wild type. Tags and fused reporters may be left off the sequences shown. Blank lines part the entries; values can stand above or below the binder they belong to.

Columns and labels:
[1] = molecular target: T1, HA-tagged mouse RNF12 wild type (HA-mRNF12 WT, 1-600) (mouse) (UniProt Q9WTV7); assay: co-IP; FLAG (M2 agarose) immunoprecipitation from lysate of Rlim-/y mESCs co-expressing FLAG-mRNF12 WT and HA-mRNF12 WT or deletion mutants; overnight at 4 °C; washes with 500 mM NaCl; immunoblot for FLAG and HA
T1 sequence: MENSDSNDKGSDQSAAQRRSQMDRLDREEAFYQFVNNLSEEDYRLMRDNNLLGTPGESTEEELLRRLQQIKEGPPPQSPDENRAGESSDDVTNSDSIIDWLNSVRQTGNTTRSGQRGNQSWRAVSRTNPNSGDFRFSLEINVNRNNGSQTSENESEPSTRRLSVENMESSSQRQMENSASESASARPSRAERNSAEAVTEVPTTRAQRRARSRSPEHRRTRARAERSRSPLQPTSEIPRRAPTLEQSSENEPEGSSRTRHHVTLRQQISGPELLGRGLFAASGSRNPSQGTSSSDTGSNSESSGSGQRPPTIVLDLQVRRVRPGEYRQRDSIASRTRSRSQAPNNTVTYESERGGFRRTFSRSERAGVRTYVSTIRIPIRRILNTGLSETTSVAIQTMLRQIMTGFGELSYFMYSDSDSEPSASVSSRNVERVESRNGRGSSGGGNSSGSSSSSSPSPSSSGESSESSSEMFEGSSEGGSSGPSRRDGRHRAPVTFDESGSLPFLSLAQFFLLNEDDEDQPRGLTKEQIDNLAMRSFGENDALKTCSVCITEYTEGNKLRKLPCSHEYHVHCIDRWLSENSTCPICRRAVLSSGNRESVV

[2] = molecular target: T2, N-terminally HA-tagged mRNF12 expressed from the endogenous locus (HA-RNF12 KI) (mouse) (UniProt Q9WTV7); assay: co-IP; HA immunoprecipitation from lysate of HA-RNF12 KI mESCs (both proteins at endogenous level), IgG as negative control; overnight at 4 °C; washes with 500 mM NaCl; immunoblot for USP26 and HA
T2 sequence: T1 sequence

[3] = molecular target: T1, HA-tagged mouse RNF12 wild type (HA-mRNF12 WT, 1-600) (mouse); assay: co-IP; HA immunoprecipitation from 1 mg lysate of transfected Rlim-/y mESCs, overnight at 4 °C; beads washed with lysis buffer containing 500 mM NaCl; immunoblot for FLAG and HA

binding [1]: binds
B1: HA-tagged mouse RNF12 wild type (HA-mRNF12 WT, 1-600) (enzyme, UniProt Q9WTV7 1-600)
chain: T1 sequence

binding [2]: binds
B2: endogenous mouse USP26 (enzyme, UniProt Q99MX1 1-835)
chain: MEPILINAQVQMWSAKAGMSKSRNALIETCVGKREVKLILYFSTGKIKTLQLHDNIKSVVLQTYGEDQNYLHLTFKNNDFLFVEKLTTTDARRLKRFLDKTSQGSIRPARSDERCGEPSTSAQELNGSGSSCETNSECFESPKESEMCMFRELSLLPSSSTFLHNVGLLENQFIKRKRFFSDLAKNEKQSNLKDSIRDFEANLVVCISNEKGKERNVREVDISKPGFGFPFETNYPEDSGVDVRDLNDLITKLFSPVLLETHCIENGLEWHEYMKTYLLYPEKLWQGLPNVGNTCYINVVLQSLCSIPLFINDLFNQGFPWIKAPKDDFNMLLMQLLVLKDIYNARFRQKLLIGITKALPIFGEIFAVDRQNDAHEFLSLCLVQLKETFQRVTMMWQSENDSGDFYLLKDIFADYATINKMPVCPVTNNFEFELLSSIFCKACGLTLFKGEPSRYLSINIPQGGKDMSIQSTLDLFFSAEELEHRCEKCLYNKSVSFHRFGRLPRVIIVHLKRYHFNESWVMKKDERPILVSKYLRLSCHCSKSTKPPPPLRPGEHVKNLDLLKPLEVLGSEILKLPFNSVRTSRSKGFETINITSNRESEAQSGKRVSEVLSGKVQQENSGKGDTAHIVGSELTKETEKLKKHEEEHRPSDLDSGSIREAQKYQQAEKCNEGRSDKQISLEALTQSRPKPISQEQTENLGKTTLSHTQDSSQSSQSSSDSSKSSRCSDDLDKKAKPTRKVDPTKLNKKEDNVYRLVNIINHIGNSPNGGHYINDAFDFKRQSWFTYSDLHVTRTQEDFVYRGRSSTGYVFFYMHNDIFEELLAKETQSTSTSKG

binding [3]: binds
B3: FLAG-tagged human USP29 (FLAG-hUSP29) (enzyme, UniProt Q9HBJ7 1-922)
chain: MISLKVCGFIQIWSQKTGMTKLKEALIETVQRQKEIKLVVTFKSGKFIRIFQLSNNIRSVVLRHCKKRQSHLRLTLKNNVFLFIDKLSYRDAKQLNMFLDIIHQNKSQQPMKSDDDWSVFESRNMLKEIDKTSFYSICNKPSYQKMPLFMSKSPTHVKKGILENQGGKGQNTLSSDVQTNEDILKEDNPVPNKKYKTDSLKYIQSNRKNPSSLEDLEKDRDLKLGPSFNTNCNGNPNLDETVLATQTLNAKNGLTSPLEPEHSQGDPRCNKAQVPLDSHSQQLQQGFPNLGNTCYMNAVLQSLFAIPSFADDLLTQGVPWEYIPFEALIMTLTQLLALKDFCSTKIKRELLGNVKKVISAVAEIFSGNMQNDAHEFLGQCLDQLKEDMEKLNATLNTGKECGDENSSPQMHVGSAATKVFVCPVVANFEFELQLSLICKACGHAVLKVEPNNYLSINLHQETKPLPLSIQNSLDLFFKEEELEYNCQMCKQKSCVARHTFSRLSRVLIIHLKRYSFNNAWLLVKNNEQVYIPKSLSLSSYCNESTKPPLPLSSSAPVGKCEVLEVSQEMISEINSPLTPSMKLTSESSDSLVLPVEPDKNADLQRFQRDCGDASQEQHQRDLENGSALESELVHFRDRAIGEKELPVADSLMDQGDISLPVMYEDGGKLISSPDTRLVEVHLQEVPQHPELQKYEKTNTFVEFNFDSVTESTNGFYDCKENRIPEGSQGMAEQLQQCIEESIIDEFLQQAPPPGVRKLDAQEHTEETLNQSTELRLQKADLNHLGALGSDNPGNKNILDAENTRGEAKELTRNVKMGDPLQAYRLISVVSHIGSSPNSGHYISDVYDFQKQAWFTYNDLCVSEISETKMQEARLHSGYIFFYMHNGIFEELLRKAENSRLPSTQAGVIPQGEYEGDSLYRPA
